Reference: US20260242486A1 (Biogen, published 2026)

Target: T1, CLL1 protein (C-type lectin-like molecule 1, CLEC12A) expressed on cells (UniProt Q5QGZ9 1-265, limits assumed)
T1 construct: whole, on cells; also called CLL1 antigen; K562-CLL1 cells
T1 sequence (looked up): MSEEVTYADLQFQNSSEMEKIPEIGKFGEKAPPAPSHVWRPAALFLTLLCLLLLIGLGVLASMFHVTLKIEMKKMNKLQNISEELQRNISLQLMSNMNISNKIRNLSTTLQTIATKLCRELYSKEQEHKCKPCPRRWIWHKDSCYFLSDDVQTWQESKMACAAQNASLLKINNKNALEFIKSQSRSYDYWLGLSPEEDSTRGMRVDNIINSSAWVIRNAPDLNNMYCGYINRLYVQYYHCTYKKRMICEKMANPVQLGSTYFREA
Assay: flow cytometry, titration of FITC-CLL1-VHH-1-hFc on K562-CLL1 cells, double-reciprocal plot of MFI
Experimental: (3) Forty microliters of the single-domain antibody FITC-CLL1-VHH-1-hFc at different gradient dilutions (specific groupings are shown in Table 3) were mixed with the above cells and incubated at room temperature in the dark for 10 min.

Kd: 48.3 nM
B1: anti-CLL1 single-domain antibody fused with hFc (CLL1-VHH-1-hFc) (Fc fusion)
chain: DVQLQESGGGLVQPGGSLRLSCAASGFTFGDYDMTWVRQAPGKGPEWVSAINSGGGSTYYADSVKGRFTISRDNAKNTLYLQMNSLKPEDTAVYYCATIDRLSTVVAGTYQPSDEYDYWGQGTQVTVSS[no letters for human IgG1 Fc with changes]
modifications: labelled with NHS-Fluorescein (FITC) for the flow cytometry assays (sites not given); unlabelled in the NK cell assays
notes: also called FITC-CLL1-VHH-1-hFc; VHH-hFc
